The list shows a part of the results. Most values come without repeats; read them as rough.
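Also: cells treated in 1,536-well plates, then fixed and DAPI-stained, with nuclei counted from automated high-throughput microscope images.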

The test system of this assay is A101D. The assay is described as follows: cell count relative to DMSO control; melanoma cells; higher = more viable cells. As to conditions: library dose: standard library concentration; 72 h.
`CC[C@]1(O)C[C@H]2CN(CCc3c([nH]c4ccccc34)[C@@](C(=O)OC)(c3cc4c(cc3OC)N(C=O)[C@H]3[C@@](O)(C(=O)OC)[C@H](OC(C)=O)[C@]5(CC)C=CCN6CC[C@]43[C@@H]65)C2)C1` [vincristine] + OCCn1cc(-c2cnc3nnn(Cc4ccc5ncccc5c4)c3n2)cn1 [PF04217903] (first compound 0.0005 µM, partner dose 5 µM) had a cell count of 97.3%.

`CC[C@]1(O)C[C@H]2CN(CCc3c([nH]c4ccccc34)[C@@](C(=O)OC)(c3cc4c(cc3OC)N(C=O)[C@H]3[C@@](O)(C(=O)OC)[C@H](OC(C)=O)[C@]5(CC)C=CCN6CC[C@]43[C@@H]65)C2)C1` [vincristine] + CC1(C)NC(=O)N(c2ccc([N+](=O)[O-])c(C(F)(F)F)c2)C1=O [nilutamide] (first compound 0.0005 µM, partner dose 5 µM) came in with a cell count of 53.5%.

`N#CC[C@H](C1CCCC1)n1cc(-c2ncnc3[nH]ccc23)cn1` [ruxolitinib] + COc1ccc(C2=N[C@@H](c3ccc(Cl)cc3)[C@@H](c3ccc(Cl)cc3)N2C(=O)N2CCNC(=O)C2)c(OC(C)C)c1 [Nutlin-3] (first compound 5 µM, partner dose 0.5 µM) had a cell count of 90.8%.

Regarding `Cc1cc(Nc2cc(N3CCN(C)CC3)nc(Sc3ccc(NC(=O)C4CC4)cc3)n2)n[nH]1` [Tozasertib] + O=C(Nc1cccc(Cl)c1)Nc1ncc(CCNc2ncnc3ccsc23)s1 [SNS314] (first compound 0.03 µM, partner dose 0.004 µM), the cell count was 68.3%.

`CC[C@]1(O)C[C@H]2CN(CCc3c([nH]c4ccccc34)[C@@](C(=O)OC)(c3cc4c(cc3OC)N(C=O)[C@H]3[C@@](O)(C(=O)OC)[C@H](OC(C)=O)[C@]5(CC)C=CCN6CC[C@]43[C@@H]65)C2)C1` [vincristine] + Clc1ccc(Nc2nnc(Cc3ccncc3)c3ccccc23)cc1 [vatalanib] (first compound 0.0005 µM, partner dose 10 µM) had a cell count of 29.5%.

`Cc1cc(Nc2cc(N3CCN(C)CC3)nc(Sc3ccc(NC(=O)C4CC4)cc3)n2)n[nH]1` [Tozasertib] + COc1ccc(Cl)c(Nc2nc3ccccc3nc2NS(=O)(=O)c2cccc(NC(=O)C(C)(C)N)c2)c1 [XL147] (first compound 0.03 µM, partner dose 4 µM): the cell count was 79.7%.

`Cc1cc(Nc2cc(N3CCN(C)CC3)nc(Sc3ccc(NC(=O)C4CC4)cc3)n2)n[nH]1` [Tozasertib] + N#CC[C@H](C1CCCC1)n1cc(-c2ncnc3[nH]ccc23)cn1 [ruxolitinib] (first compound 0.03 µM, partner dose 5 µM): the cell count was 90.3%.

`N#CC[C@H](C1CCCC1)n1cc(-c2ncnc3[nH]ccc23)cn1` [ruxolitinib] + CC(C)C[C@H](NC(=O)[C@H](Cc1ccccc1)NC(=O)c1cnccn1)B(O)O [Bortezomib] (first compound 5 µM, partner dose 0.005 µM): the cell count is 18.4%.
